Test results published in PMC12136788.
The list shows a part of the results.

B1: chr19:12699786:12699848:-|3pUTR|ENSG00000105576|msi1_unk|FALSE|overlapping (ssRNA)
RNA: GGGAGUUCUACAGUCCGACGAUCCCUGCUCCAUCCAUCCCUCCUGGGCGCCAGACCCUCCAUCCAAGCCCUGUGUCUUUCCAUAGUCAGGGUCAGGCCCUGCAUCUAUUCCAAGGGGCACUCAGUACACAUUCCAUAAAUUAGCAACAGAGGAUUGAGCAUCA
B2: chr3:154334942:154337698:-|three_prime_utr|ENSG00000174948|control|control|control (ssRNA)
RNA: GGGAGUUCUACAGUCCGACGAUCAACUGUGAAACUAACACCUUUGUUAUGAGACUGAUUUCCUUUUAUUUGUUGGCUUACAUUAGUUUUACUGAUUUAAUAGUUAAUUUUUUUGUGGGAACAACUGGAACUAGUGUAAACACUCAACAGAGGAUUGAGCAUCA
B3: chr8:76864132:76864233:+|CDS|ENSG00000091656|msi1|total|mutant (ssRNA)
RNA: GGGAGUUCUACAGUCCGACGAUCUCAAGCUUGCACAAAGAGAAAACAAUCAAACAAGCAAUGAGAAAUGCCAAAGAGCAUGUCCGAUUAUUACCUCACUCAGUCUGCUCCCCUAAUCCUAACACCACAUCUACCUCGCAGUCUCAACAGAGGAUUGAGCAUCA
B4: chr3:98797553:98797658:-|3pUTR|ENSG00000057019|msi1|FALSE|unique (ssRNA)
RNA: GGGAGUUCUACAGUCCGACGAUCAUUUCAUUCAUUGAAGAAUCAAUACAUAUUUUGUUUCAAAAUGUUUGAAACAAAAGACAUAGAUGGUAGACUUUUAUUAAAACAUAUAUGGAUGUGGAAAGCACAUAUAUUAAUGCAGUCCAACAGAGGAUUGAGCAUCA
B5: chrX:65740646:65740790:+|3pUTR|ENSG00000147065|msi1|FALSE|unique (ssRNA)
RNA: GGGAGUUCUACAGUCCGACGAUCGGCCAUUCUAUUGUGGCAAGGCUGAGUAGAAGAUCCUACCCCAAUUCCUUGUAGGAGUAUAGGCCGGUCUAAAGUGAGCUCUAUGGGCAGAUCUACCCCUUACUUAUUAUUCCAGAUCUGCAACAGAGGAUUGAGCAUCA
B6: chr1:24654915:24655033:+|CDS|ENSG00000133226|unk|FALSE|unique (ssRNA)
RNA: GGGAGUUCUACAGUCCGACGAUCUCACGGUCACCACCAAAGAAGCCUCCCAAGAGGACAUCCAGCCCCCCUCGGAAAACUCGUAGGUUAUCUCCUUCAGCAAGUCCUCCAAGGCGAAGGCACAGGCCAUCACCUCCUGCAACUCAACAGAGGAUUGAGCAUCA
B7: chr19:51964856:51966214:-|CDS|ENSG00000256683|control|control|control (ssRNA)
RNA: GGGAGUUCUACAGUCCGACGAUCGCCUUCUGUGGCCCCUCAGACAUCAUUAAACAUCAGCGGCCUCCUCGCAAACAGGAACGUAGUCCUUGUGGGACAGCCAGUGGUCAGAUGUGCAGCCUCAGGAGAUAACAGAGGAUUUGCCAACAGAGGAUUGAGCAUCA
B8: chr7:77355212:77355430:-|CDS|ENSG00000186088|control|control|control (ssRNA)
RNA: GGGAGUUCUACAGUCCGACGAUCGCUCUAUAGAGCACUGCUCAGCCAGUCGUCUUUAUUACAGCUUCUGCAGAACACUUGCUUAGACUGUGAGAAGAUGGCUGCGUUGCACUGCGCGCUCUACUGCGGUCAAGGUGCGCAGUUCAACAGAGGAUUGAGCAUCA
B9: chr13:42886387:42888493:-|three_prime_utr|ENSG00000133106|control|control|control (ssRNA)
RNA: GGGAGUUCUACAGUCCGACGAUCCAUAUUUAAUCUCUACUGCCAGGGAAAUGCUACAUUAUUUUUCUAAUUGGAAGUAUAAUUAGAGUGAUGUUGGUAGGGUAGAAAAAGAGGGAGUCACUUGAUGCUUUCAGGUUAAUCAGACAACAGAGGAUUGAGCAUCA
B10: chr17:29548703:29548809:+|3pUTR|ENSG00000160551|unk|total|mutant (ssRNA)
RNA: GGGAGUUCUACAGUCCGACGAUCAGCACUUGUGAGUGAAAAAUCAUGUAAUUAUCUGUAAAUAUGCCGCUAACAAAUUGACCCCGUUUCUGUAUUUUUUUGUUUUUGUACUAAAGUUUACCGGUCUGUGCCAGCCCGAGAGAACAACAGAGGAUUGAGCAUCA
B11: chr18:2804133:2804242:+|3pUTR|ENSG00000101596|unk|total|mutant (ssRNA)
RNA: GGGAGUUCUACAGUCCGACGAUCGGUUAAAGAGAAAUGACUUUUCCGGAACCCGACUUGAACGUAUAAUUAAUAUGUGGAACCCGUUUGCUUUUAUAAUUCAUUGUAUCAAGAAGGAGUCAUGUUUUAAAUCCAAGGCAUUGACAACAGAGGAUUGAGCAUCA
B12: chr22:41245667:41245769:-|3pUTR|ENSG00000100401|msi1|FALSE|unique (ssRNA)
RNA: GGGAGUUCUACAGUCCGACGAUCCAAUGUCCGAGCUGCAUCUGGACGCUGCUCUUAAAGGACCUCCUGGGGCAGGGGAGCGGUAGGGUCUGGACUGGGCAGAUGCUGUAUGACCUCCCUGAGCACCCGUGACUGCCCCAUGCUCAACAGAGGAUUGAGCAUCA
B13: chr7:5606511:5606625:+|3pUTR|ENSG00000075618|msi1_unk|total|mutant (ssRNA)
RNA: GGGAGUUCUACAGUCCGACGAUCGGGUGUCUUGGUCUUUUAUUUUUUGUAAGUGUCAUUUGUAUAACUCUAAACGCCCAUGACCGCCGCUUCAAACUGGAAACCGCGAAAUAAAAUAACUCAGUCUGCAGCCCCAGGCCGGCCCAACAGAGGAUUGAGCAUCA
B14: chrX:74588119:74588220:-|3pUTR|ENSG00000131263|msi1|total|mutant (ssRNA)
RNA: GGGAGUUCUACAGUCCGACGAUCUCCGAAAAUGCUGGGAUUACAGGCGUGAGCCACCAUGUCCAGCCAAAGUUGAGGUUUAUCCGUACUAUCCGAAACAAAAUUGAGCAAGUUAAGUUAAAAGUUUGCUGACUUUGUAUCAACCAACAGAGGAUUGAGCAUCA
B15: chr15:48342169:48342270:+|3pUTR|ENSG00000128951|msi1_unk|FALSE|overlapping (ssRNA)
RNA: GGGAGUUCUACAGUCCGACGAUCAAAAAAAAAAAAAGUUUUUGCUUCAAGUGUUUUGGUGUUUUGCACUUCUGUAAACUUACUAGCUUUACCUUCUAAAAGUACUGCAUUUUUUACUUUUUUUUAUGAUCAAGGAAAAGAUCACAACAGAGGAUUGAGCAUCA
B16: chr12:98549714:98549829:+|3pUTR|ENSG00000120802|unk|FALSE|unique (ssRNA)
RNA: GGGAGUUCUACAGUCCGACGAUCGAAGAUGUAUAUUUAGACCAGCACACAAUUUUGAUUUCAAUUAGCCUUAUUCUAAUAUUUAGCUUUUAGAUCUUUCAUACACAUUUUCACGUACUUUGCAAUUGAGACCAGAAAGACUUGCAACAGAGGAUUGAGCAUCA
B17: chr11:77702383:77702481:-|5pUTR_CDS|ENSG00000048649|msi1_unk|FALSE|overlapping (ssRNA)
RNA: GGGAGUUCUACAGUCCGACGAUCAUUUUUAGAGGAACAGAAAGAAAGUGAAAAGAUGAAAAGUGAGGAGCAGCCUAUGGAUUUAGAAAACCGUUCUACAGCCAAUGUUCUAGAAGAGACUACUGUGAAAAAAGAAAAAGAAGACAACAGAGGAUUGAGCAUCA
B18: chr12:74541195:74541296:+|3pUTR|ENSG00000253719|msi1|total|mutant (ssRNA)
RNA: GGGAGUUCUACAGUCCGACGAUCUGGGGGAAGGGGGGGGUUCUUUAAAAUUUCUGUGGUUUGUGGCUUUUUCUUCCAUACAUCCGUUCCCACCAUCGCAUGCCCAGGGACCACUGCCUGGCAUUAUCGCAUGCUGGGAUCAUCCAACAGAGGAUUGAGCAUCA
B19: chr14:100883672:100883793:-|CDS|ENSG00000254656|unk|FALSE|unique (ssRNA)
RNA: GGGAGUUCUACAGUCCGACGAUCUCUAUUCCGGGUCCCUCAGCCGGAUUCCCUAGACAGUCUGAUUGUGCUCAUCCUGCAAAUAGAAGAGAAGCUGGCAGAGAGAAGAGCUAUGCUCAGGCUGCCCCCCGAGGCCCGCCCCCGCAACAGAGGAUUGAGCAUCA
B20: ENSG00000124766:be:win_2651|3pUTR|ENSG00000124766|bound_else_gene|NA|bound_elsewhere_windowed (ssRNA)
RNA: GGGAGUUCUACAGUCCGACGAUCAAAUUAUCACCAGCUUUUUUUCAUUCUUAACUCUUUAAAGGAUUCAAACGCAACUCAAAUCUGUGCUGGACUUUAAAAAAACAAUUCAGGACCAAAUUUUUUCUCAGUGUGUGUGUUUAUCAACAGAGGAUUGAGCAUCA
B21: chr13:108210595:108210700:-|CDS|ENSG00000174405|unk|total|mutant (ssRNA)
RNA: GGGAGUUCUACAGUCCGACGAUCUCAGCACUUGAGCAAAAGUGGCUUAUACGGAUGAUCAUAAAGGAUUUAAAGCUUGGUGUCCGUCAGCAAACUAUCUUUUCUGUUUUUCAUAAUGAUGCUGCUGAGUUGCAUAAUGUCACUCAACAGAGGAUUGAGCAUCA
B22: ENSG00000124766:be:win_2201|3pUTR|ENSG00000124766|bound_else_gene|NA|bound_elsewhere_windowed (ssRNA)
RNA: GGGAGUUCUACAGUCCGACGAUCGCGGGAGCUAGGGGCGGGGGCGGAGGAGGACACGAACUGGAAGGGGGUUCACGGUCAAACUGAAAUGGAUUUGCACGUUGGGGAGCUGGCGGCGGCGGCUGCUGGGCCUCCGCCUUCUUUCAACAGAGGAUUGAGCAUCA

target: MSI1 full-length (mouse, UniProt Q61474 1-362); test: nsRBNS (natural sequence RNA bind-n-seq); RBNS binding buffer (assumed for nsRBNS): 25 mM Tris pH 7.5, 150 mM KCl, 3 mM MgCl2, 0.01% Triton X-100, 500 ug/ml BSA, 20 U/ml SUPERase-In, 4 C; UNK is unkempt and MSI1 is Musashi-1; names of the RNAs are library labels; protein concentration not given here; high values mean tight binding
Sequence of UniProt Q61474 (Q61474 whole entry): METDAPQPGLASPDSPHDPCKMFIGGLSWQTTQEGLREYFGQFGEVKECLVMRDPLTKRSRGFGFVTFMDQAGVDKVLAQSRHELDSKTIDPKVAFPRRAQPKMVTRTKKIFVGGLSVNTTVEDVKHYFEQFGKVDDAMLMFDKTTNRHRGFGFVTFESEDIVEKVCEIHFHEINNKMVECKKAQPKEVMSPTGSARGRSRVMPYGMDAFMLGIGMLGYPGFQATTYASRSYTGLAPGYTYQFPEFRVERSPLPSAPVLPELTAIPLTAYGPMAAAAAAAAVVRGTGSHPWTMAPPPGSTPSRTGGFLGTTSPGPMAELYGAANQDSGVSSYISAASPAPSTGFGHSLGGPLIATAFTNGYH

Row | Binder | binding signal
1 | B1 | 0.904 enrichment R
2 | B2 | 3.06 enrichment R
3 | B3 | 0.883 enrichment R
4 | B4 | 1.08 enrichment R
5 | B5 | 0.592 enrichment R
6 | B6 | 0.598 enrichment R
7 | B7 | 0.649 enrichment R
8 | B8 | 0.255 enrichment R
9 | B9 | 0.46 enrichment R
10 | B10 | 1.11 enrichment R
11 | B11 | 0.796 enrichment R
12 | B12 | 0.277 enrichment R
13 | B13 | 0.53 enrichment R
14 | B14 | 0.246 enrichment R
15 | B15 | 0.384 enrichment R
16 | B16 | 23.7 enrichment R
17 | B17 | 1.41 enrichment R
18 | B18 | 0.827 enrichment R
19 | B19 | 0.603 enrichment R
20 | B20 | 0.819 enrichment R
21 | B21 | 0.223 enrichment R
22 | B22 | 0.529 enrichment R
